Experimental data from patent US20230002489A1 (SHANGHAI EPIMAB BIOTHERAPEUTICS, published 2023).

What follows are binders tested against T1, human CD3 on the surface of Jurkat cells (human, UniProt P07766; P09693; P04234) (assay: flow cytometry on Jurkat cells, MFI against antibody conc. (nM)).
T1 construct: whole, on cells; Endogenous CD3 complex of the Jurkat T cell line; also called cell surface CD3 target on Jurkat cells; CD3-expressing Jurkat cells
Description: Different humanized VH and VK combinations led to humanized anti-CD3 variants with different CD3 binding affinities. The binding activity of the humanized variants of mAbCD3-001 were tested via flow cytometry with the human CD3-expressing Jurkat T cell line. 5×10⁵ Jurkat cells in FACS buffer were seeded into each well of a 96-well plate. Cells were centrifuged at 400 g for 5 minutes and supernatants were discarded. For each well, 100 μl of serially diluted antibodies were then added and mixed with the cells. After 40 minutes incubation at 4° C., plates were washed several times to remove excess antibodies. […] After another round of centrifugation and a washing step, cells were resuspended in FACS buffer for reading on a CytoFLEX Flow Cytometer (Beckman Coulter). Median Fluorescence Intensity (MFI) readouts were plotted against antibody concentration and analyzed with GraphPad Prism 5.0 software.

T1 sequence (P07766 23-207, chain 1 of 3): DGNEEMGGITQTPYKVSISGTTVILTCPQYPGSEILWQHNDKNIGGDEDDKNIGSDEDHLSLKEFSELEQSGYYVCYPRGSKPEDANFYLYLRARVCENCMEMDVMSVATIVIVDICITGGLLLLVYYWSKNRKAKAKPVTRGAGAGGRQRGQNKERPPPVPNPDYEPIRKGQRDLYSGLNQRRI
T1 sequence (P09693 23-182, chain 2 of 3, further chain): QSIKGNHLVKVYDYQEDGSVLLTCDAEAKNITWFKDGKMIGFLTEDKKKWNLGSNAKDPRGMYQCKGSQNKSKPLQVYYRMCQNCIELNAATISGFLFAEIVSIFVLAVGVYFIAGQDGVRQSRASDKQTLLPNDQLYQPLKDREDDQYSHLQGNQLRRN
T1 sequence (P04234 22-171, chain 3 of 3, further chain): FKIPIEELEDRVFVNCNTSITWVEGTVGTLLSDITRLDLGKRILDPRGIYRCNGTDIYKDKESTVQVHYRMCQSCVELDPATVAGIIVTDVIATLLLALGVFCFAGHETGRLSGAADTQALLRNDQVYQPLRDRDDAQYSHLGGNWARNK

Binder	binding result
HuEM0006-01-17 (antibody, human IgG1, kappa, Humanized variant of mAbCD3-001) heavy: EVQLVQSGAEVKKPGASVKVSCKASGFSFTNYYVHWMRQAPGQGLEWMGWISPGSDNTKYNEKFKGRVTMTRDTSISTAYMELSRLRSDDTAVYYCARDDYGNYYFDYWGQGTTVTVSSASTKGPSVFPLAPSSKSTSGGTAALGCLVKDYFPEPVTVSWNSGALTSGVHTFPAVLQSSGLYSLSSVVTVPSSSLGTQTYICNVNHKPSNTKVDKKV[letters of human IgG1 Fc with changes omitted] light: DIVMSQSPDSLAVSLGERATITCKSSQSLLNSRTRKNYLAWYQQKPGQPPKLLIYWASTRESGVPDRFSGSGSGTDFTLTISSLQAEDVAVYYCKQSYILRTFGGGTKVEIKRTVAAPSVFIFPPSDEQLKSGTASVVCLLNNFYPREAKVQWKVDNALQSGNSQESVTEQDSKDSTYSLSSTLTLSKADYEKHKVYACEVTHQGLSSPVTKSFNRGEC	binds
HuEM0006-01-18 (antibody, human IgG1, kappa, Humanized variant of mAbCD3-001) heavy: EVQLVQSGAEVKKPGASVKVSCKASGFSFTNYYVHWMKQAPGQGLEWIGWISPGSDNTKYNEKFKGKATLTADTSITTAYMELSRLRSDDTAVYYCARDDYGNYYFDYWGQGTTVTVSSASTKGPSVFPLAPSSKSTSGGTAALGCLVKDYFPEPVTVSWNSGALTSGVHTFPAVLQSSGLYSLSSVVTVPSSSLGTQTYICNVNHKPSNTKVDKKV[letters of human IgG1 Fc with changes omitted] light: DIVMSQSPDSLAVSLGERATITCKSSQSLLNSRTRKNYLAWYQQKPGQPPKLLIYWASTRESGVPDRFSGSGSGTDFTLTISSLQAEDVAVYYCKQSYILRTFGGGTKVEIKRTVAAPSVFIFPPSDEQLKSGTASVVCLLNNFYPREAKVQWKVDNALQSGNSQESVTEQDSKDSTYSLSSTLTLSKADYEKHKVYACEVTHQGLSSPVTKSFNRGEC	binds
HuEM0006-01-15 (antibody, human IgG1, kappa, Humanized variant of mAbCD3-001) heavy: EVQLVQSGAEVKKPGASVKVSCKASGFSFTNYYVHWMRQAPGQGLEWIGWISPGSDNTKYNEKFKGKATLTADTSISTAYMELSRLRSDDTAVYYCARDDYGNYYFDYWGQGTTVTVSSASTKGPSVFPLAPSSKSTSGGTAALGCLVKDYFPEPVTVSWNSGALTSGVHTFPAVLQSSGLYSLSSVVTVPSSSLGTQTYICNVNHKPSNTKVDKKV[letters of human IgG1 Fc with changes omitted] light: DIVMSQSPDSLAVSLGERATITCKSSQSLLNSRTRKNYLAWYQQKPGQPPKLLIYWASTRESGVPDRFSGSGSGTDFTLTISSLQAEDVAVYYCKQSYILRTFGGGTKVEIKRTVAAPSVFIFPPSDEQLKSGTASVVCLLNNFYPREAKVQWKVDNALQSGNSQESVTEQDSKDSTYSLSSTLTLSKADYEKHKVYACEVTHQGLSSPVTKSFNRGEC	binds
HuEM0006-01-16 (antibody, human IgG1, kappa, Humanized variant of mAbCD3-001) heavy: EVQLVQSGAEVKKPGASVKVSCKASGFSFTNYYVHWMRQAPGQGLEWIGWISPGSDNTKYNEKFKGRVTLTADTSISTAYMELSRLRSDDTAVYYCARDDYGNYYFDYWGQGTTVTVSSASTKGPSVFPLAPSSKSTSGGTAALGCLVKDYFPEPVTVSWNSGALTSGVHTFPAVLQSSGLYSLSSVVTVPSSSLGTQTYICNVNHKPSNTKVDKKV[letters of human IgG1 Fc with changes omitted] light: DIVMSQSPDSLAVSLGERATITCKSSQSLLNSRTRKNYLAWYQQKPGQPPKLLIYWASTRESGVPDRFSGSGSGTDFTLTISSLQAEDVAVYYCKQSYILRTFGGGTKVEIKRTVAAPSVFIFPPSDEQLKSGTASVVCLLNNFYPREAKVQWKVDNALQSGNSQESVTEQDSKDSTYSLSSTLTLSKADYEKHKVYACEVTHQGLSSPVTKSFNRGEC	binds

Second part, the binder after the results:

binding result	Binder
binds	HuEM0006-01-12 (antibody, human IgG1, kappa, Humanized variant of mAbCD3-001) heavy: EVQLVQSGAEVKKPGASVKVSCKASGYTFTNYYVHWVRQAPGQGLEWIGWISPGSDNTKYNEKFKGKATLTADTSISTAYMELSRLRSDDTAVYYCARDDYGNYYFDYWGQGTTVTVSSASTKGPSVFPLAPSSKSTSGGTAALGCLVKDYFPEPVTVSWNSGALTSGVHTFPAVLQSSGLYSLSSVVTVPSSSLGTQTYICNVNHKPSNTKVDKKV[letters of human IgG1 Fc with changes omitted] light: DIVMSQSPDSLAVSLGERATITCKSSQSLLNSRTRKNYLAWYQQKPGQPPKLLIYWASTRESGVPDRFSGSGSGTDFTLTISSLQAEDVAVYYCKQSYILRTFGGGTKVEIKRTVAAPSVFIFPPSDEQLKSGTASVVCLLNNFYPREAKVQWKVDNALQSGNSQESVTEQDSKDSTYSLSSTLTLSKADYEKHKVYACEVTHQGLSSPVTKSFNRGEC
binds	HuEM0006-01-13 (antibody, human IgG1, kappa, Humanized variant of mAbCD3-001) heavy: EVQLVQSGAEVKKPGASVKVSCKASGYTFTNYYVHWMRQAPGQGLEWIGWISPGSDNTKYNEKFKGKATLTADTSISTAYMELSRLRSDDTAVYYCARDDYGNYYFDYWGQGTTVTVSSASTKGPSVFPLAPSSKSTSGGTAALGCLVKDYFPEPVTVSWNSGALTSGVHTFPAVLQSSGLYSLSSVVTVPSSSLGTQTYICNVNHKPSNTKVDKKV[letters of human IgG1 Fc with changes omitted] light: DIVMSQSPDSLAVSLGERATITCKSSQSLLNSRTRKNYLAWYQQKPGQPPKLLIYWASTRESGVPDRFSGSGSGTDFTLTISSLQAEDVAVYYCKQSYILRTFGGGTKVEIKRTVAAPSVFIFPPSDEQLKSGTASVVCLLNNFYPREAKVQWKVDNALQSGNSQESVTEQDSKDSTYSLSSTLTLSKADYEKHKVYACEVTHQGLSSPVTKSFNRGEC
